Where two headings read alike, the source gives them in different places. The list shows a part of the results.
System: T1, C. trachomatis L2/434/Bu expressing GFP (CTL2-GFP)
T1 construct: L2/434/Bu GFP intracellular growth in HeLa cells
Design: species or system HeLa; C. trachomatis total inclusion area by high-content imaging, normalised to DMSO
Summary of the method: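 After bulk GFP and resorufin fluorescence reads, cells were fixed, stained with Hoechst and imaged by high-content microscopy. Inclusion area and number (GFP) stood in for chlamydial growth, nuclei count (Hoechst) for host cell viability. MICs were derived as for the bulk readout.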

[1] = total inclusion area; 28.5 h, 10 µM; inhibitor

Row | SMILES | % of control remaining (total inclusion area, 28.5 h, 10 µM, inhibitor) | % of control remaining [1]
1 | O=C(Nc1cccnc1)c1cnc2cc(C(F)(F)F)ccc2c1O [CBK107474] | 106.278 | 
2 | CCS(=O)(=O)N1CCc2cc(-c3csc(-c4cnn(C)c4)n3)ccc21 [CBK305560] |  | 38.9437
3 | Cc1onc(-c2ccccc2)c1-c1n[nH]c(=S)o1 [CBK009044] |  | 63.1689
4 | O=[N+]([O-])c1ccc(OCCOc2nccnc2N2CCNCC2)c2ncccc12 [CBK000623C] |  | 138.235
5 | O=C(O)c1ccc(Br)c(S(=O)(=O)Nc2ccc(Cl)cc2)c1 [CBK263247] |  | 68.6183
6 | CC(NC(=O)c1ccccc1)c1nnc(SCC(=O)c2ccccc2)n1C (stereo not drawn) [CBK269644] |  | 89.6968
7 | NS(=O)(=O)c1ccc(CCNC(=O)c2ccc(C#Cc3ccccc3)cc2)cc1 [CBK263089] |  | 110.816
8 | Cc1cc(COc2nccnc2OC2CCN(Cc3ccccc3F)CC2)no1 [CBK082948T] |  | 85.3961
9 | CCn1c2ccccc2n2c(SC(C)C(=O)O)nnc12 (stereo not drawn) [CBK267079] |  | 89.2557
10 | Cc1ccccc1-c1nnc(SC(C)C)n1CCN(C)S(C)(=O)=O [CBK200088] |  | 100.415
11 | CCOc1ccc2c(c1)cc(C(=O)NCc1cc(CC)no1)n2C [CBK281553] |  | 71.561
12 | CCOC(=O)c1ccc(N2C(=O)CC(N3CCN(c4ncccn4)CC3)C2=O)cc1 (stereo not drawn) [CBK263306] |  | 91.5518
13 | CCS(=O)(=O)c1ccc2oc([C@H]3CCN(S(=O)(=O)c4ccccc4)C3)nc2c1 [CBK289382] |  | 103.745
14 | COc1ccc(C(=O)NNC(=O)c2cccc(Cl)c2)cc1OC [CBK261704] |  | 78.4338
15 | CCOc1ccsc1C(=O)NC1Cc2ccccc2C1 [CBK200359] |  | 0
16 | Oc1ccc(-n2cc(-c3ccsc3)nn2)cc1 [CBK113093] |  | 0
17 | Cc1ccn(CC(=O)N2CC[C@H]3NC(=O)COc4ccccc4CCCC[C@@H]3C2)c(=O)c1 [CBK292045] |  | 115.152
18 | O=C(O)CCSc1nnc2[nH]c3ccccc3n12 [CBK265736] |  | 124.053
19 | COC(=O)CC1C(=O)NCCN1C(=O)COc1ccc(Cl)cc1 (stereo not drawn) [CBK264938] |  | 110.472
20 | CCCN1CCN(CC(=O)NCc2ccco2)CC1 [CBK270300] |  | 88.8642
21 | CC(C)CC(NC(=O)N1CCOc2ccc(Cl)cc2C1)c1ncnn1C (stereo not drawn) [CBK306544] |  | 63.3641

Row | SMILES | % of control remaining (total inclusion area, 28.5 h, 10 µM, inhibitor) | % of control remaining [1]
22 | N#Cc1ccncc1NCc1ccccc1CN1CCCC1CO (stereo not drawn) [CBK304021] |  | 80.0074
23 | COc1cc(NC(=S)P(=O)(c2ccccc2)c2ccccc2)c(OC)cc1Cl [CBK021976] |  | 89.7531
24 | CC1=C[C@@H](CNC(=O)c2ccccn2)[C@H](C(C)C)C[C@H]1CC(=O)N1CCCC1 [CBK289207] |  | 89.4104
25 | CC(=O)Nc1ccc(S(=O)(=O)Oc2ccc(/C=C3\SC(=N)NC3=O)cc2Cl)cc1 [CBK265357] |  | 100.24
26 | Cc1nnc2nc(-c3cccc(Cl)c3Cl)[nH]n12 [CBK263845] |  | 120.044
27 | Nc1nc(=O)c2cnc3ccc(C(=O)O)cc3c2s1 [CBK291239] |  | 124.698
28 | COc1cc(C(=O)N2CCC(N(C)C)C2)ccc1Nc1cncc(-c2cc3ccccc3[nH]2)n1 (stereo not drawn) [CBK161475] |  | 85.118
29 | Cc1nc(C)c(CC(=O)NC(c2ccncc2)c2cccs2)s1 (stereo not drawn) [CBK281439] |  | 106.697
30 | Nc1ncc(-c2ccc(C(=O)N3CCOCC3)cc2)cc1C(=O)NCc1ccc(S(N)(=O)=O)cc1 [CBK158597] |  | 87.5423
31 | O=C(NCCC1=CCCCC1)Nc1ccc(SC(F)(F)F)cc1 [CBK043725] |  | 78.4873
32 | COc1ccccc1N1CCN(C(=O)CCC(=O)c2cccs2)CC1 [CBK091498] |  | 106.057
33 | Cc1c(C(=O)O)c(-c2ccc(Cl)cc2)cn1CCO [CBK286959] |  | 112.673
34 | O=C(NCCNc1cnccn1)c1cncc(Br)c1 [CBK304278] |  | 68.4387
35 | CC(C)NC(=O)C1CCCN(c2nc3ccccc3n2C)C1 (stereo not drawn) [CBK282373] |  | 78.8507
36 | CC(=O)c1ccc(-c2nccnc2NCC2CC2)s1 [CBK037975] |  | 86.4946
37 | CCOC(=O)CNC(=O)c1cc2ccccc2c(=O)o1 [CBK058083] |  | 95.0248
38 | Cc1cc(C)nc(N/C(=N\C(=O)Nc2ccccc2)NCc2cccnc2)n1 [CBK132681] |  | 79.8084
39 | CN(Cc1ccccc1)C(C#N)c1c[nH]c2ccccc12 (stereo not drawn) [CBK087062] |  | 102.165
40 | CC(C)N(C(=O)c1ccccc1-c1cnn2cccnc12)C(C)C [CBK307701] |  | 44.2742
41 | CS(=O)(=O)Nc1ccc(-c2ccccc2)c2ccccc12 [CBK083741] |  | 95.4289
42 | Cc1cc(S(=O)(=O)N2CCCCC2)ccc1OCC(=O)O [CBK269254] |  | 103.315

Row | SMILES | % of control remaining (total inclusion area, 28.5 h, 10 µM, inhibitor) | % of control remaining [1]
43 | COc1ccc(Nc2nc(-c3cc(C(C)C)ccc3OC)cn3ccnc23)cn1 [CBK066354] |  | 106.819
44 | COCc1ccc(C(=O)NCC2CCCOC2)o1 (stereo not drawn) [CBK282188] |  | 98.6816
45 | Cn1c(=O)c2c(nc(CN3CCOCC3)n2CCN2CCOCC2)n(C)c1=O [CBK269560] |  | 98.2172
46 | c1ccc(-c2cc(-c3ccccc3)n3nc(Cc4nc5nc(-c6ccccc6)cc(-c6ccccc6)n5n4)nc3n2)cc1 [CBK261017] |  | 103.749
47 | COc1ccc(-c2c[nH]c3c(=S)[nH]cnc23)cc1 [CBK288462] |  | 50.7842
48 | COc1ccc(CC(=O)N2CCC(C3OCc4cc(-c5ccc(C(=O)N(C)C)cc5)ccc4O3)CC2)cc1 (stereo not drawn) [CBK149759] |  | 93.7909
49 | Cc1cc(NC(=O)c2ccc3c(c2)OCO3)nc2c1c(=O)oc1ccccc12 [CBK291121] |  | 95.2614
50 | COCCNc1cc(-c2ccc(SC)cc2)ncn1 [CBK090795] |  | 90.3409
51 | Cc1cc(C)n(C2CCN(Cc3cnn(C4CCCCC4)c3)CC2)n1 [CBK281804] |  | 106.497
52 | CC(C)C(=O)N1CC2(CCN(Cc3ccc(C(C)C)cc3)CC2)c2ccccc21 [CBK122702] |  | 84.2067
53 | O=C(O)CN1C(=O)C2(CC(=O)N(Cc3ccccc3)C2=O)c2cc(F)ccc21 (stereo not drawn) [CBK076173] |  | 122.636
54 | O=C(O)CCNc1ncnc2ccccc12 [CBK126920] |  | 97.9407
55 | CC(C)NS(=O)(=O)c1ccc(OCC(=O)Nc2ccc3c(c2)OCCO3)cc1 [CBK265915] |  | 126.001
56 | O=C(O)Cn1cc(C(=O)COc2ccccc2)c2ccccc21 [CBK286708] |  | 78.3021
57 | Cc1nn(C)c(C)c1NC(=O)COc1ccc(C#N)cc1 [CBK306011] |  | 39.1039
58 | COc1ccccc1-c1cnc(N)c(N2CCN(CCO)CC2)n1 [CBK063403] |  | 143.934
59 | COCCNC(=O)c1cnc2ccc(OC)cc2c1O [CBK159999] |  | 89.1326
60 | CN(C)CCCn1nc2n(c1=O)-c1ccccc1SC(c1ccccc1)C2 (stereo not drawn) [CBK016063] |  | 91.3259
61 | O=C(NC(=S)Nc1ccc2oc(-c3ccncc3)nc2c1)c1cc(Br)ccc1Cl [CBK264343] |  | 101.491
62 | FC(F)(F)c1ccnc(OCCCc2ccncc2)n1 [CBK115799] |  | 100.079
63 | O=S(=O)(c1ccc(Cl)cc1)N1CCN(S(=O)(=O)N2CCCCC2)CC1 [CBK267075] |  | 105.953

Row | SMILES | % of control remaining (total inclusion area, 28.5 h, 10 µM, inhibitor) | % of control remaining [1]
64 | CN(C)C(C(=O)NCC1(C)COC1)c1ccc(Cl)cc1 (stereo not drawn) [CBK281753] |  | 76.2014
65 | COc1ccc(NC(=O)N[C@H]2CO[C@H]3[C@@H]2OC[C@@H]3n2cc(-c3ccccc3)nn2)cc1 [CBK289506] |  | 115.163
66 | CN(Cc1ccc(Cl)c(F)c1)C(=O)c1cn[nH]c1C1CCCCN1 (stereo not drawn) [CBK304742] |  | 52.7235
67 | CCC(CC(=O)NC1CCCOC1)c1c[nH]c2ccccc12 (stereo not drawn) [CBK282521] |  | 135.448
68 | CCOc1ccc(NC(=O)Cn2c3c(c(-c4ccccc4)cc2=O)CCCC3)cc1 [CBK294457] |  | 95.2254
69 | O=C1NCCNC(=O)C2(C/C=C/COc3ccccc31)CCCN(C(=O)c1cnco1)C2 (stereo not drawn) [CBK291993] |  | 101.547
70 | CC(C)c1ccc(OCC(=O)NNC(=O)c2ccco2)c(Br)c1 [CBK267224] |  | 101.372
71 | CC(C)CNC(=O)N1CCNC(=O)C1 [CBK155864] |  | 96.8483
72 | Cn1ccnc1Sc1cc(C(F)(F)F)ccn1 [CBK093798] |  | 85.1221
73 | COc1ccc(-c2cc(-c3c(O)ccc4c(C)cc(=O)oc34)nc(N)n2)cc1OC [CBK074619] |  | 130.561
74 | CCN(CC1CCOC1)C(=O)c1cn2ccccc2n1 (stereo not drawn) [CBK305653] |  | 74.4762
75 | Cn1nc(C2CCN(C(=O)Cc3ccsc3)CC2)c2cccnc21 [CBK284986] |  | 82.0761
76 | Fc1ccc(C2NC(S)=NC3=C2N2CCC3CC2)cc1 (stereo not drawn) [CBK288390] |  | 65.3756
77 | Cc1nccnc1N1CCC2(CCCN(CC3CCC3)C2=O)C1 (stereo not drawn) [CBK306806] |  | 38.9265
78 | COc1cccc(/C=N/N2C(=O)c3ccc([N+](=O)[O-])cc3NC2c2cccc(OC)c2O)c1O (stereo not drawn) [CBK074439] |  | 74.7668
79 | CN1CCN(C(=O)c2cnc3cc(C(F)(F)F)ccc3c2O)CC1 [CBK107423] |  | 95.6424
80 | CCCc1nnc2sc(C3CCCN(C(C)C)C3)nn12 (stereo not drawn) [CBK306781] |  | 83.0619
81 | Cn1ccnc1CNC(=O)N1CCCC(C(=O)c2cccc(Cl)c2)C1 (stereo not drawn) [CBK307479] |  | 29.8921
